# Laboratory results from article PMC4336329 (PLoS ONE, 2015).
# The campaign covered roughly 310,000 compounds. About 14,000 (4.5%) showed an effect of 50% or more. The effect is printed as a negative number. Some of the results follow.
# Molecular target: human ether-à-go-go-related gene (hERG) potassium channel (human, UniProt Q12809)
# Assay: primary screen, population patch clamp on CHO cells stably expressing hERG
# 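Further: peak tail current of the secondary pulse compared with the same well before compound.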
# Chain of human ether-à-go-go-related gene (hERG) potassium channel (Q12809 whole entry, looked up): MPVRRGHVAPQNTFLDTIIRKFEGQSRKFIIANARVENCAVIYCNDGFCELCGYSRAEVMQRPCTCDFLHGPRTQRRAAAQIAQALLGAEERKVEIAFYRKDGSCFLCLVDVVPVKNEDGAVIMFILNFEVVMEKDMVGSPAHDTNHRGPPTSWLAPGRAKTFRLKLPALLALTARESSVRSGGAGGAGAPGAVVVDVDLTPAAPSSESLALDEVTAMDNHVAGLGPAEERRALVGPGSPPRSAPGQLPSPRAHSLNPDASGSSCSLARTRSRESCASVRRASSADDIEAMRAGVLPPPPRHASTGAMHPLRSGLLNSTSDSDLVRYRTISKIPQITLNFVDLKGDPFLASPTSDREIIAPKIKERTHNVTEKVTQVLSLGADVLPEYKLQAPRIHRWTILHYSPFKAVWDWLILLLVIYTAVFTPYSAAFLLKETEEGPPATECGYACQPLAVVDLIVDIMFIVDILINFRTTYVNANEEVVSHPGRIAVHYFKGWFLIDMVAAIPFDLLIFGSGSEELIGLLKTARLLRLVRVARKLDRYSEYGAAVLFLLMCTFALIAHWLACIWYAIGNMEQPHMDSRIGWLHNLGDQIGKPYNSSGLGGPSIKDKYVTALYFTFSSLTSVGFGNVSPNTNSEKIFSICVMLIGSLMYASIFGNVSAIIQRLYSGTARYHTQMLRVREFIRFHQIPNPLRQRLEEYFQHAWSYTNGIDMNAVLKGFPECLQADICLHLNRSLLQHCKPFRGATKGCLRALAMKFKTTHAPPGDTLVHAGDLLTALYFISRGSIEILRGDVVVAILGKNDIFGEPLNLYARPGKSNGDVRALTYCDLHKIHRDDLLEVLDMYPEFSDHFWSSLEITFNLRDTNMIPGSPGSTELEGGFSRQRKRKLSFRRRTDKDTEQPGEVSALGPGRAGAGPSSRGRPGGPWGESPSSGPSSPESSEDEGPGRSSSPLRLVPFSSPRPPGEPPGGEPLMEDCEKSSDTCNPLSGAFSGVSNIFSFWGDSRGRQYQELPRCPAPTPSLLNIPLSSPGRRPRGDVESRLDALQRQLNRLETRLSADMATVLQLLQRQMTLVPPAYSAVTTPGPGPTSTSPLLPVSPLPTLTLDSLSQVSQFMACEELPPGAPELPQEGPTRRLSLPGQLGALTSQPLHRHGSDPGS
row,SMILES,"hERG current change (%, negative = inhibition) at 10uM [%]"
1,Cc1cccc(C)c1N(CC(=O)N1CCCC1)S(C)(=O)=O,17
2,CN(C(=O)c1ccccc1-c1ccccc1C(=O)O)c1ccccc1,10.8
3,COc1ccc(C(=O)NNC(=S)NC(=O)c2ccccc2[N+](=O)[O-])cc1,17.1
4,CC1CCCCC1NC(=O)COC(=O)c1ccccn1 (stereo not drawn),2.49
5,O=C(NC(Cc1ccccc1)C(=O)O)/C(=C\c1ccccc1)NC(=O)c1ccc(Br)o1 (stereo not drawn),2.51
6,CCOC(=O)N1CCN(C(=O)c2ccc(S(=O)(=O)NCc3ccco3)cc2)CC1,-2
7,CCSc1ccc([C@@H]2[C@@H]3C(=O)N(CC)C(=O)[C@@H]3[C@]3(C(=O)OC)CCCCN23)cc1OC.O=C(O)C(F)(F)F,-6.79
8,CCOc1ccc(NC(=O)N[C@@H](CCSC)C(=O)OC)cc1,5.52
9,Cc1nn(C)cc1C(C(=O)NC1CCCCC1)N(CCc1ccccc1)C(=O)c1cnccn1 (stereo not drawn),-25.4
10,COc1ccc(-c2ccc(C#N)c(SCC(=O)NCCc3ccccc3)n2)cc1OC,18.2
11,CCCn1cc(SCC(=O)Nc2ccc3c(c2)OCO3)c2ccccc21,-2.42
12,Clc1ccc(-c2csc(N3CCSCC3)n2)cc1,11.5
13,COc1cc(/C=C2/SC(=S)N(CCC(=O)Nc3ccccc3)C2=O)cc(OC)c1OC,13.8
14,O=C(OC(C(=O)NCc1ccccc1)c1ccccc1F)c1ccco1 (stereo not drawn),-4.55
15,O=C(Nc1nnc(SCc2ccc(F)cc2)s1)C1CC(=O)N(c2ccc3c(c2)OCCO3)C1 (stereo not drawn),14.5
16,COc1ccccc1N1CCN(C2CCN(C(=O)COc3cccc(C)c3)CC2)CC1.O=C(O)C(=O)O,-67.8
17,CCOc1ccc(NC(=O)CN2CCN(CC(=O)Nc3ccc(Cl)c(C(F)(F)F)c3)CC2)cc1,-57
18,CCNc1nc(SC(C)C(=O)Nc2ccccc2)nc(N2CCOCC2)n1 (stereo not drawn),-1.81
19,Cc1ccc(CNC(=O)CCc2nc(-c3cccs3)no2)cc1,-20.7
20,COc1ccc(-c2nn(-c3ccccc3)cc2/C=N/O)cc1OC,-4.66
21,O=C(CSc1nnc(SCc2ccc(Cl)cc2)s1)N/N=C/c1c[nH]c2ccccc12,2.15

row,SMILES,"hERG current change (%, negative = inhibition) at 10uM [%]"
1,Cc1ccc(CNC(=O)c2ccc(OCC3CCCO3)cc2)cc1 (stereo not drawn),6.09
2,O=C(c1ccc(Cl)cc1)C1CCN(C(=O)c2ccccc2)CC1,-34.3
3,Cc1ccc(NC(=O)c2cc(=O)n(Cc3ccccc3)c(=O)[nH]2)cc1C,35.8
4,Br.Cc1cc(C)cc(OCC(=O)NN2Cc3ccccc3C2=N)c1,-11.6
5,Cc1ccc(S(=O)(=O)N2CCC(C(=O)NC3CC(C)(C)NC(C)(C)C3)CC2)cc1,14.1
6,NC(=O)CC(NC(=O)Cc1ccc(Br)cc1)c1ccc(NCc2ccc(F)c(F)c2)c([N+](=O)[O-])c1 (stereo not drawn),-1.71
7,O=C(NCc1ccco1)c1csc2c1CCCC2,3.81
8,C=C(C)Cn1c(SCC(=O)O)nnc1-c1ccc(C(C)(C)C)cc1,19.4
9,CC(C)n1cc(CN2CCC(n3nccc3NC(=O)Cc3ccccc3)CC2)cn1,7.82
10,O=C(NCCN1C(=O)S/C(=C\c2cccnc2)C1=O)C1CC(=O)N(Cc2ccco2)C1 (stereo not drawn),14.5
11,CCC(C)(C)c1ccc(OCC(=O)Nc2ccncc2)cc1,-16
12,CCN1CNC(=S)N(Cc2ccccc2)C1,-4.02
13,CC(C)(C)OC(=O)N1CCC(c2c(C(=O)N3CCN(C(=O)c4ccco4)CC3)cnn2-c2ccc(F)cc2)CC1,-14.8
14,O=C(NNC(=O)c1ccc(Cl)cc1Cl)c1cccs1,25.1
15,Cc1ccc(NC(=O)c2ccc(Cl)c(N3C(=O)C=CC3=O)c2)cc1,-0.826
16,CC(=O)Nc1cc(O)cc(O)c1,4.9
17,Cc1ccc(S(=O)(=O)N2CCCOC2CNC(=O)C(=O)NCCCn2ccnc2)cc1 (stereo not drawn),9.65
18,CC1=NN(c2ccccc2)C(=O)C1C(=O)c1ccc([N+](=O)[O-])cc1 (stereo not drawn),3.92
19,COc1ccc(C(CC(=O)c2ccccc2)S(=O)(=O)c2ccccc2)cc1 (stereo not drawn),6.69
20,CCn1c(SCC(=O)Nc2ccc(NC(C)=O)cc2)nc2c1c(=O)n(C)c(=O)n2C,24.7
21,COc1ccc(C(=O)NCc2ccc3c(c2)cc(C)n3C)cc1OC,-4.32
